Experimental data published in patent publication US20080176857A1, “4-Piperazinnylthieno[2,3-d]Pyrimidine Compounds as Platelet Aggregation Inhibitors” (priority 2005, published 2008).
The source holds more than one record for some entries. They are shown here; other results are not. There may be further records. Values given together read as repeated measurements on other runs, samples or individuals.

Target: P2Y12 receptor (Homo sapiens, UniProt Q9H244)
Assay: [33P]-2MeS-ADP binding to recombinant human P2Y12 membranes (Assay 3)
Parameters: expressed in transfected cells; host or cells: HEK cells
Conditions: HEK cell membranes expressing human P2Y12, competition with 33P 2MeS-ADP
Method: 3. Human P2Y12 Recombinant Cell Membrane Binding Assay with ^33P 2MeS-ADP.
The ability of a test compound to bind to the P2Y12 receptor was evaluated in a recombinant cell membrane binding assay. In this competitive binding assay, the test compound competed against a radiolabelled agonist for binding to the P2Y12 receptor, expressed on the cell membrane. Inhibition of binding of the labeled material was measured and correlated to the amount and potency of the test compound. Data from this assay are presented in Table F. This binding assay is a modification of the procedure in Takasaki, J. et. al, Mol. Pharmacol., 2001, Vol. 60, pg. 432.
HEK cells were transfected with the pDONR201P2Y12 vector and cultured in MEM with GlutaMAX I, Earle's salts, 25 mM HEPES (Gibco # 42360-032) containing 10% dialyzed FBS (Gibco # 26400-044), 100 μM nonessential amino acids (Gibco # 11140-050), 1 mM sodium pyruvate (Gibco # 11360-070), 0.05% geneticin (Gibco #10131-027), 3 μg/mL blasticidin (Fluka brand from Sigma # 15205), and 0.5 μg/mL puromycin (Sigma # P-8833). […]
The plates were incubated at room temperature for 1 hour. […] The filter plates were sealed, shaken for 30 minutes, and counted on a Top Count. Data were analyzed using a four-parameter curve fit with a fixed minimum and maximum experimentally defined as the average positive and negative controls on each plate, and with a hill slope equal to one. […]

Chain of UniProt Q9H244 (Q9H244 whole entry): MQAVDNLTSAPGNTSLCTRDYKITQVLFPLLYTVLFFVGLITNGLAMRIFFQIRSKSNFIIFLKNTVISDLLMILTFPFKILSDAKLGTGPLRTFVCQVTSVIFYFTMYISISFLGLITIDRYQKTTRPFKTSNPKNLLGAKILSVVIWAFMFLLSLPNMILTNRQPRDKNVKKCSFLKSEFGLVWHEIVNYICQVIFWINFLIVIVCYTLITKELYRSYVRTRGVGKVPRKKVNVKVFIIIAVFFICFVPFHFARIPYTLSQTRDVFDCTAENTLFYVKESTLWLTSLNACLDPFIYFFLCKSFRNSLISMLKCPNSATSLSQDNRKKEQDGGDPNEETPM

`CCc1cc2c(N3CCN(C(=O)Cc4ccccc4)CC3)nc(SCC(=O)Nc3ccccc3)nc2s1` [Example 23, 2-({6-Ethyl-4-[4-(phenylacetyl)piperazin-1-yl]thieno[2,3-d]pyrimidin-2-yl}thio)-N-phenylacetamide] was tested. Which IC50 did it give?
The IC50 was > 10 µM and 380 nM [lines of one column].

What about the Ki of the same molecule?
Its Ki is > 5.7 µM and 210 nM [lines of one column].
